Test results reported in article PMC6919601, “Identification of Plasmodium dipeptidyl aminopeptidase allosteric inhibitors by high throughput screening” (PLoS ONE, 2019).
The campaign covered roughly 110,000 compounds. About 230 (0.21%) showed an effect of 50% or more. This is one part of the list.

molecular target: DPAP1 (Plasmodium falciparum, UniProt Q8IIJ9); assay: primary screen, percent inhibition; read by cleavage of a fluorogenic dipeptide substrate; higher = more effect of the substance; parameters: species or system P. falciparum D10 trophozoite lysates; single well
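Note: 30 min substrate incubation versus DMSO and 10 µM JCP410 controls.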

Sequence of DPAP1 (Q8IIJ9 whole entry, looked up): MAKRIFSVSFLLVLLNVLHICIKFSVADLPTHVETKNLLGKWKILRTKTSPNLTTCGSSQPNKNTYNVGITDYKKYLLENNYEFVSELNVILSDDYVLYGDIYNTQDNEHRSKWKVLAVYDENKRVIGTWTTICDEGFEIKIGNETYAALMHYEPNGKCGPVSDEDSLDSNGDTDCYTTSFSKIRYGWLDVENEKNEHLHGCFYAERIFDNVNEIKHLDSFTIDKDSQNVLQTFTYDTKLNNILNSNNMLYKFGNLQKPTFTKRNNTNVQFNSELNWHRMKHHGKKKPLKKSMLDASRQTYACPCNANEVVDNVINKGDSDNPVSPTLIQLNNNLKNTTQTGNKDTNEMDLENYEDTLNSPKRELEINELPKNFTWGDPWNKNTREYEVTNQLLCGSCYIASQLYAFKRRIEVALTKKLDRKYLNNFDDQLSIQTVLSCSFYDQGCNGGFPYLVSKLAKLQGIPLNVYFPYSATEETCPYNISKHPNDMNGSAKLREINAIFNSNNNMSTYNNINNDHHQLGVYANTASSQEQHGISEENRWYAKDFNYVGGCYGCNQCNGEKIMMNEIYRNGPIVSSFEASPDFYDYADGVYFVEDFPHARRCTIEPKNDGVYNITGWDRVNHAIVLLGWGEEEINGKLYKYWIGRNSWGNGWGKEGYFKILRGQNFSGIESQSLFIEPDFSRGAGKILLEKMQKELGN

Compound | % Inhibition @ 10 uM
CCCC(=O)Nc1ccc(S(=O)(=O)N2CCC(C)CC2)cc1 | -0.968%
O=C(NCCCN1CCCc2ccccc21)Nc1cccc2ccccc12 | 3.32%
CC1C(c2ccccc2)=[N+]([O-])C(C)(c2ccc(Cl)cc2)N1O (centres unmarked) | -7.45%
COc1cc(NC(=O)c2cc3ccccc3cc2O)c(OC)cc1NC(=O)c1cc2ccccc2cc1O | 2.7%
CC(C)C(=O)Nc1ccc(NC(=O)COc2ccc(C(C)C)cc2)cc1 | -4.43%
CCC(C(=O)Nc1ccc(Cl)c(Cl)c1)c1ccccc1 (centres unmarked) | -5.2%
Cc1ccc(-c2cc(C(=O)N3CC(C)CC(C)C3)c3ccccc3n2)o1 (centres unmarked) | 2.84%
CC(=O)c1ccc(Nc2cc(C)nc3ncnn23)cc1 | -0.0938%
CCn1c2ccccc2c2cc(C3C4CCCC=C4C(C#N)=C(N)C3(C#N)C#N)ccc21 (centres unmarked) | 3.04%
COc1ccccc1CNC(=O)CCc1c(C)c2cc3c(C)coc3c(C)c2oc1=O | -4.39%
CC(=O)C1=C(O)C(=O)N(c2ccc(Br)cn2)C1c1ccc(Cl)cc1 (centres unmarked) | 1.94%
CC(=O)c1c(C)n(CCC2=CCCCC2)c2ccc(O)cc12 | -0.401%
C#CCOc1c(Br)cc(C2C(C#N)=C(N)Oc3cc4c(cc32)OCO4)cc1OC (centres unmarked) | 3.87%
O=C(Nc1cccnc1Cl)c1nn2c(c1Cl)NC(c1ccco1)CC2C(F)(F)F (centres unmarked) | -2.8%
N#CCSc1ncnc2scc(-c3ccc(Br)cc3)c12 | -5.6%
O=C(COCc1cc(-c2cccs2)on1)NCC1CCCO1 (centres unmarked) | -4.96%
Cc1[nH]c2ccccc2c1SCCNC(=O)C(C)(C)Oc1ccc(Cl)cc1 | -3.27%
O=C(C1CCN(S(=O)(=O)c2ccc3nc(O)ccc3c2)CC1)N1CCc2ccccc2C1 | 1.42%
Cc1ccc2oc(-c3cccc(N)c3C)nc2c1 | -7.27%
Cc1cc(Br)ccc1OCC(=O)O/N=C(\N)c1cccnc1 | -6.94%
N#CCCN1CCN(S(=O)(=O)c2ccc(S(=O)(=O)NCc3ccccc3)cc2)CC1 | 1.62%
COc1ccc(Nc2nc(N)c3ccccc3n2)c(OC)c1 | -2.29%
COC(=O)c1ccc(CNc2ccc(F)c(Cl)c2)cc1 | 0.273%
O=S(=O)(c1ccc2c(c1)Cc1cc(S(=O)(=O)N3CCCCC3)ccc1-2)N1CCCCC1 | -0.598%
Cc1cc(/C=c2\sc3nc4ccccc4n3c2=O)c(C)n1C(C)C | 7.26%
CC1CCc2c(sc3nnn(CCc4ccccc4)c(=O)c23)C1 (centres unmarked) | -1.18%

Compound | % Inhibition @ 10 uM
O=C(COc1ccccc1)Nc1ccc(Cl)cc1C(=O)O | -1.99%
CCc1ccc(C2C3=C(CCCC3=O)OC3=C2C(=O)CCC3)cc1 | 2.3%
CCCCOc1ccc(CSc2nnc(C)n2N)cc1 | 0.484%
COc1ccc(S(=O)(=O)NCc2csc(-c3ccccc3)n2)cc1 | 2.57%
O=C1S/C(=C\c2ccccc2)C(=O)N1CNc1cccc(F)c1 | -3.43%
CS(=O)(=O)/C=C/C(Cc1ccccc1)NC(=O)c1cnccn1 (centres unmarked) | -4.82%
O=C(NCc1ccccc1Cl)C1CCN(C(=O)c2cnn(-c3ccccc3)c2-n2cccc2)CC1 | -1.6%
CNC(=O)C(C)n1c2ccccc2c2cnnc(O)c21 (centres unmarked) | 4.55%
CCCn1c(=O)c(C(=O)Nc2ccc(Br)cc2)c(O)c2ccccc21 | 0.177%
COCCNC(=O)/C(C#N)=C/c1c(Oc2ccc(C)cc2)nc2c(C)cccn2c1=O | 0.315%
COc1ccc(CN2CCN(c3ncnc4onc(-c5ccc(F)cc5)c34)CC2)c(OC)c1OC | -4.02%
CCOc1ccc(NC(=O)c2cccc(OC)c2)cc1 | 7.27%
CCCNC(=O)CSC1=N/C(=C/c2ccc(F)cc2)C(=O)N1CC | 2.68%
Fc1cccc(Cl)c1-c1nnc2ccc3ccccc3n12 | 2.24%
CCO/C(O)=C(\C(=N)NCCCO)C(=O)c1ccccc1 | -4.19%
O=C(NCCCN1CCCC1=O)C1CCN(c2ncnc3c2sc2cccc(F)c23)CC1 | -0.85%
COc1ccccc1OCCn1c(=O)oc2ccc(C)cc21 | -2.16%
Cc1nc2c(cc1C(=O)/C=C/c1cccs1)CCCC2 | 2.47%
COc1ccc(-c2nnc3n(Cc4ccccc4Cl)c(=O)c4ccccc4n23)cc1OC | -7.29%
Cc1ccc(OCC(=O)NCc2nc(-c3ccccc3)no2)c(Br)c1 | 2.14%
COCCNC(=O)CSc1nc2nc(C)cc(C)n2n1 | 4.36%
CCc1ccc(CNC(=O)c2nn(C)c3c2CS(=O)(=O)c2ccccc2-3)cc1 | -2.58%
Cc1cc(C)c2c(N)c(S(=O)Cc3ccc(Cl)cc3)sc2n1 (centres unmarked) | 6.27%
CC1(C)OC(=O)N(CCOC23CC4CC(CC(C4)C2)C3)C1(C)O (centres unmarked) | 4.09%
CC(=O)N1CCC(NCC(C)(C)CN(C)C)CC1 | 1.57%
Cc1nc(-c2ccccc2)c2c(O)ccnc2n1 | -4.76%

Compound | % Inhibition @ 10 uM
Cc1ccc(NC(=O)c2ccc3c(c2)OCO3)c(Br)c1 | 1.57%
COc1ccc(N(CC(=O)Nc2ccc(C)cc2)S(=O)(=O)c2ccccc2)cc1Cl | -3.28%
O=S1(=O)N=C(c2ccccc2)c2ccccc2N1 | 2.95%
C#CCn1c(-c2ccc(OC)cc2)nc2ccccc21 | -0.551%
CCN(CC)CCN(C)C1CCN(C)CC1 | 1.38%
CC(C)Oc1ccc(-c2nc3s/c(=C\c4ccc(F)cc4)c(=O)n3n2)cc1 | 0.487%
CCCCCC1NC(=O)NC1CCCCCC(=O)O (centres unmarked) | 7.05%
Cc1ccc(NC(=O)c2cc3nc(C(F)F)cc(C(F)F)n3n2)cc1C | 3.24%
Cc1csc2nc(CSc3nnc(N)s3)cc(=O)n12 | -7.65%
N#Cc1c(NC(=O)c2cc(=O)c3cc(Cl)ccc3o2)sc2c1CCCC2 | -1.47%
CC(C)(C)c1ccc(Oc2nc3ccccn3c(=O)c2/C=C(\C#N)C(=O)NCc2ccco2)cc1 | 5.89%
CS(=O)(=O)N1CCN(c2ccc(NC(=O)c3ccco3)cc2)CC1 | -6.02%
CCOC(=O)c1c(C)n(-c2cccc(Cl)c2)c2ccc(O)cc12 | -1.69%
COC(=O)C1=C(C)N2C(=O)CSC2=NC1c1ccc2c(c1)OCO2 (centres unmarked) | 3.87%
CCOc1ccc2c(=O)c(Oc3cc(C)cc(C)c3)coc2c1 | 9.77%
CCSc1cc(N2CCN(C)CC2)nc(-c2ccc(OC)cc2)n1 | 0.161%
CCOC(=O)c1cnc(SC)nc1NC(=O)CSCc1csc2c1CCCC2 | 9.97%
COc1cccc(OC)c1C(=O)Nc1cccnc1 | 5.66%
O=C(CC(c1ccc(F)cc1)N1Cc2ccccc2C1=O)N1CCc2ccccc2C1 (centres unmarked) | -9.28%
O=C(O)C1C2CC3CC(C2)CC1(n1ncc(N2CCC4(CC2)OCCO4)c(Cl)c1=O)C3 (centres unmarked) | -0.522%
CCOC(=O)c1cnc(Nc2nc(C)c3ccc(C)cc3n2)nc1C | 25.6%
COc1ccccc1/C=C(\C#N)c1nc(-c2ccccc2)cs1 | 4.26%
Cc1cccc(N2C(=O)C(Cl)=C(N(C)c3ccccc3)C2=O)c1 | -3.46%
CNC(=O)c1cc2c(=O)n3ccccc3nc2n(CC2CCCO2)c1=N (centres unmarked) | -1.47%
CCN1CCN(CCCNC(=O)c2[nH]c3ccccc3c2Sc2ccc(Cl)cc2)CC1 | -4.26%
CN(CC(=O)Nc1c(F)cccc1F)S(=O)(=O)c1ccc(Br)cc1 | 2.79%

Compound | % Inhibition @ 10 uM
COc1ccccc1OCC(=O)N(Cc1ccc(N(C)C)cc1)C1CCS(=O)(=O)C1 (centres unmarked) | 4%
Cn1cnc(S(=O)(=O)Nc2nnc(S)s2)c1 | 95.5%
O=C(O)c1cccn1Cc1ccccc1Cl | 4.61%
O=C(Cn1ncn2cccc2c1=O)NCc1cccnc1 | 1.91%
C#CCOC(=O)c1ccccc1C(=O)N(c1ccccc1)c1ccccc1 | -2.62%
O=C(CSCc1ccccc1Cl)N1CCN(c2ccccn2)CC1 | 0.514%
c1ccc(CC23CC4CN(CCN(C4)C2)C3)cc1 | 1.57%
Cc1ccc(-c2cc(C(=O)Nc3ccc(S(N)(=O)=O)cc3)c3ccccc3n2)o1 | 5.48%
CC1(C)Cc2ccccc2-c2nnc(-c3cccs3)n21 | -4.5%
CCOc1ccc(NC(=O)c2ccc([N+](=O)[O-])o2)cc1 | 4.16%
Cc1cc(C(=O)NCCCN2CCCC2=O)c2c(C)nn(-c3cccc(Cl)c3C)c2n1 | -2.07%
CCC[C@H](NC(=O)C1(NC(=O)c2ccc(OC(F)(F)F)cc2)CCCCC1)C(=O)c1nc2ccccc2o1 | 1.7%
CC(C)(C)C1CCC(N2CCOCC2)CC1 (centres unmarked) | 1.29%
COc1cccc(N2C(=O)CC(N3CCN(C4CC(=O)N(c5cccc(OC)c5)C4=O)CC3)C2=O)c1 (centres unmarked) | 3.8%
Cn1ccnc1Sc1cccc2c1C(=O)c1ccccc1C2=O | -0.289%
CS(=O)(=O)N(CC(=O)Nc1ccccc1F)c1cccc(F)c1 | -0.622%
CCCS(=O)(=O)c1nc(S(=O)(=O)c2ccc(C)cc2)c(NCCN(C)C)s1 | -2.25%
CCCN1C(=O)c2[nH]nc(-c3c(C)cc(C)cc3O)c2C1c1cc(OC)c(OC)c(OC)c1 (centres unmarked) | 4.83%
Cc1cc(C(=O)N2CCc3ccccc3C2)[nH]n1 | 0.359%
CCOc1ccc(/C=C/C(=O)Nc2nc(-c3ccccc3)cs2)cc1 | 3.54%
CC(C)(C)NS(=O)(=O)Nc1ncccn1 | 1.42%
COc1cccc2c3c(c(C)nc12)CC(C)O3 (centres unmarked) | -0.711%
N#Cc1ccc(N2C(=O)C3ON(c4ccccc4)C(c4ccccc4)C3C2=O)cc1 (centres unmarked) | -0.68%
